Results: PMC6010280
No constants are given. Whether binding was seen depends on the method and setting. For part of these data: Binding seen in cells or lysates may run through a third protein. Some binding calls cover weakened binding; strength is not graded here. Where a sequence is shown, tags or fusion partners need not be part of it.

By UniProt entry, the sequences of proteins in these tests, tags left out. Where a name states a change or a piece, a line headed by the entry shows the natural chain unless it says otherwise. Chains listed by the source or under a name are the forms on record and can include a tag or linker.
HA-MATα2 (P18298, form named): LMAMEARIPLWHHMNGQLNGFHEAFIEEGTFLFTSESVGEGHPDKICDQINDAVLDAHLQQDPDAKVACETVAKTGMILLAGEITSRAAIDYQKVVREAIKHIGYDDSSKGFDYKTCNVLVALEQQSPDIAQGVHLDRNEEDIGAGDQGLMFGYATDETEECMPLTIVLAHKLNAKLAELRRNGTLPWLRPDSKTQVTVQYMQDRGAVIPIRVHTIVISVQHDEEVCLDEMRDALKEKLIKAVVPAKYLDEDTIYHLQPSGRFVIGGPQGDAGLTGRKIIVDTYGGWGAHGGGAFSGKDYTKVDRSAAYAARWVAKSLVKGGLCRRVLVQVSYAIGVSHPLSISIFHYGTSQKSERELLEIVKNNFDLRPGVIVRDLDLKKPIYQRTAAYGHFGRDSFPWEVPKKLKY
HA-MATα1 (P13444, form named): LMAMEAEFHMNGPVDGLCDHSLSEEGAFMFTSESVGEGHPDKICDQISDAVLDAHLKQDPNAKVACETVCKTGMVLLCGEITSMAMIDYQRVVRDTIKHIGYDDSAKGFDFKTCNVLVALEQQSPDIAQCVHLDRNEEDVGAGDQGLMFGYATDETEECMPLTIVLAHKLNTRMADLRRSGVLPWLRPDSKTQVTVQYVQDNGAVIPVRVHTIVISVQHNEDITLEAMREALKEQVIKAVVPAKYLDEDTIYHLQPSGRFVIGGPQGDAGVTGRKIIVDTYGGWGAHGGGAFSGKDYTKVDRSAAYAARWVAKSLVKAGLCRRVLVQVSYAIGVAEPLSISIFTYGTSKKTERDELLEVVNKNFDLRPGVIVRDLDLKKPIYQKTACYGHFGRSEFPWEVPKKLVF
HA-HMGB1 (high mobility group protein B1) (P63159, form named): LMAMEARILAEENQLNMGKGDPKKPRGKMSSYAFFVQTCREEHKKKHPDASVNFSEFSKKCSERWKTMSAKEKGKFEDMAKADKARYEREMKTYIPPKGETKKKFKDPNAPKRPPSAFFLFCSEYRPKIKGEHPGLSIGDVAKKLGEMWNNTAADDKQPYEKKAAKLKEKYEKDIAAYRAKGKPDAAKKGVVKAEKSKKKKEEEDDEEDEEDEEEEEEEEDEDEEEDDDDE

T1: FLAG-BHMT (R. norvegicus) (UniProt O09171)
T1 sequence: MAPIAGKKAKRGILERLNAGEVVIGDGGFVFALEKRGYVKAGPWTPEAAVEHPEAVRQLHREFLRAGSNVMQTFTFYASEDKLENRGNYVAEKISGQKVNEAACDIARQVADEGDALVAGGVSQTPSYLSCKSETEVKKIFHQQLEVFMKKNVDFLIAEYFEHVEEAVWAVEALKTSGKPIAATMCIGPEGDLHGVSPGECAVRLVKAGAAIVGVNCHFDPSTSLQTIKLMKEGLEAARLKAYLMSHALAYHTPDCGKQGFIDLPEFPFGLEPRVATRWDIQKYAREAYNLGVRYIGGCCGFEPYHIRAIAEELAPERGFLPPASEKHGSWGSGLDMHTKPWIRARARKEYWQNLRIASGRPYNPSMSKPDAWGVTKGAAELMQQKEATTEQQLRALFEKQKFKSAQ

T2: HA-ALDOB (aldolase B) (rat) (UniProt P00884)
T2 sequence: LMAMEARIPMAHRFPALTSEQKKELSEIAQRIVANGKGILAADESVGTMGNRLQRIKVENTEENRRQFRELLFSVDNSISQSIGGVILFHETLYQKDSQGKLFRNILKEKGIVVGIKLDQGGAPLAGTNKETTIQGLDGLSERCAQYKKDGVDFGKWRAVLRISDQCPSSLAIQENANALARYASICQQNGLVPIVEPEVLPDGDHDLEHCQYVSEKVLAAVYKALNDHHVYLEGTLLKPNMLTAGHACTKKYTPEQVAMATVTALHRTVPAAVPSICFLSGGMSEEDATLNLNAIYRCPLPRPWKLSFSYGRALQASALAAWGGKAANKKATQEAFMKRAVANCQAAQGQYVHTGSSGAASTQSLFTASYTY

T3: HA-HPD (4-hydroxyphenylpyruvic acid dioxygenase) (rat) (UniProt P32755)
T3 sequence: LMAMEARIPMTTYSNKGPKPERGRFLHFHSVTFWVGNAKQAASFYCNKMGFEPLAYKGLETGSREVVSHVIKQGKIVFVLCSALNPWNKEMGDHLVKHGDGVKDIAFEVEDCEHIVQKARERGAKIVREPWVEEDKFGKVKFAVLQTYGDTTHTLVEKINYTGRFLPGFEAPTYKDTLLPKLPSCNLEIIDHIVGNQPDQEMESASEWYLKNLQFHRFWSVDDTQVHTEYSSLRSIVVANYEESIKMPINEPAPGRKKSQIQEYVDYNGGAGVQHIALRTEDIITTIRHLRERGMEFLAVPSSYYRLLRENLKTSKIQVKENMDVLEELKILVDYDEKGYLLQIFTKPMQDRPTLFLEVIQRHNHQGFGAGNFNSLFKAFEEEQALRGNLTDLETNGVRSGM


Assays:
[1] = target: T1, FLAG-BHMT (R. norvegicus); experiment: co-IP; Cos7 cells cotransfected with pFLAG-BHMT and pHA-prey (1:1), lysates 48 h after transfection; anti-FLAG M2 agarose overnight at 4°C; anti-HA immunoblot; 50 mM Tris/HCl pH 7.5, 150 mM NaCl, 1 mM EDTA, 1% NP-40, 1 mM DTT
[2] = target: BHMT, yeast two-hybrid fusion (pGBKT7-BHMT) (rat) (UniProt O09171); experiment: two-hybrid; pGBKT7-BHMT bait against a rat liver Matchmaker cDNA library in yeast AH109; growth on -Ade/-His/-Leu/-Trp SC medium; verified by cotransformation
[3] = target: T2, HA-ALDOB (aldolase B) (rat); experiment: co-IP; Cos7 cells cotransfected with pFLAG-BHMT and pHA-prey (1:1), lysates 48 h after transfection; anti-HA on protein A Sepharose overnight at 4°C; immunoblot with a mixture of anti-HA and anti-BHMT
[4] = target: T3, HA-HPD (4-hydroxyphenylpyruvic acid dioxygenase) (rat); experiment: as above

Molecule	binding [1]	also measured
HA-MATα2 (from UniProt P18298 1-395)	binds	–
HA-MATα1 (from UniProt P13444 1-397)	binds	–
HA-HMGB1 (high mobility group protein B1) (from UniProt P63159 1-215)	no binding	–
BHMT, yeast two-hybrid fusion (pGBKT7-BHMT) (enzyme, UniProt O09171 1-407) MAPIAGKKAKRGILERLNAGEVVIGDGGFVFALEKRGYVKAGPWTPEAAVEHPEAVRQLHREFLRAGSNVMQTFTFYASEDKLENRGNYVAEKISGQKVNEAACDIARQVADEGDALVAGGVSQTPSYLSCKSETEVKKIFHQQLEVFMKKNVDFLIAEYFEHVEEAVWAVEALKTSGKPIAATMCIGPEGDLHGVSPGECAVRLVKAGAAIVGVNCHFDPSTSLQTIKLMKEGLEAARLKAYLMSHALAYHTPDCGKQGFIDLPEFPFGLEPRVATRWDIQKYAREAYNLGVRYIGGCCGFEPYHIRAIAEELAPERGFLPPASEKHGSWGSGLDMHTKPWIRARARKEYWQNLRIASGRPYNPSMSKPDAWGVTKGAAELMQQKEATTEQQLRALFEKQKFKSAQ	–	binding [2]: binds
FLAG-BHMT (enzyme, UniProt O09171 1-407) MAPIAGKKAKRGILERLNAGEVVIGDGGFVFALEKRGYVKAGPWTPEAAVEHPEAVRQLHREFLRAGSNVMQTFTFYASEDKLENRGNYVAEKISGQKVNEAACDIARQVADEGDALVAGGVSQTPSYLSCKSETEVKKIFHQQLEVFMKKNVDFLIAEYFEHVEEAVWAVEALKTSGKPIAATMCIGPEGDLHGVSPGECAVRLVKAGAAIVGVNCHFDPSTSLQTIKLMKEGLEAARLKAYLMSHALAYHTPDCGKQGFIDLPEFPFGLEPRVATRWDIQKYAREAYNLGVRYIGGCCGFEPYHIRAIAEELAPERGFLPPASEKHGSWGSGLDMHTKPWIRARARKEYWQNLRIASGRPYNPSMSKPDAWGVTKGAAELMQQKEATTEQQLRALFEKQKFKSAQ	–	binding [3]: binds; binding [4]: binds
